# Reference: PubChem BioAssay AID493208 (National Center for Advancing Translational Sciences (NCATS), 2011)
# The whole screen tested about 44,000 compounds, of which about 340 (0.77%) were called active. Not shown: some 5% with an inconclusive outcome. Calls come from the whole dose curve; as a rule, active = well fitted inhibition curve with a large enough effect; inconclusive = small, poorly fitted or top-dose-only effect; inactive = flat fitted curve, though single readings scatter. The list shows a part of the results.
# Assay: Acumen qHTS Assay for Inhibitors of the mTORC1 Signaling Pathway in MEF (Tsc2-/-, p53-/-) Cells: Sytravon;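 note: plate controls were DMSO for no effect and rapamycin for full effect; nearly all actives have a fitted effect of over 50% in size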
# Conditions: phospho-rpS6 immunofluorescence/PI, 24 h; series mostly up to 38.3 µM; activity change, negative = inhibition: at the top concentration
# Procedure, shortened: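 Tsc2-/-, p53-/- MEFs (empty-vector stable line) in DMEM + 10% FBS were treated with compounds 24 h at 37 degree Celsius, fixed, and immunostained for phospho-rpS6 (Alexa-488) with propidium iodide counterstain. Laser-scanning cytometry gave % positive cells, normalized against 7.5 nM rapamycin and DMSO.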
row,Compound,"activity change, negative = inhibition"
1,Cc1ccc(CNC(=O)CCC(=O)N2CC(C)Sc3ccccc32)cc1 (stereo unspecified),inactive: -12.4%
2,CCCCn1c(CNC(=O)c2ccc(OC)cc2)nnc1SCC(=O)Nc1ccccc1,inactive: -14.8%
3,COc1ccc(-c2cc(C(C)=O)c(C)n2CCC(=O)NCc2ccc(F)cc2)cc1,inactive: -0.575%
4,Cc1ccc(NC(=O)c2cc3c(=O)[nH]c4ccccc4c3n2C)cc1F,inactive: -0.462%
5,CCN(CC)c1cc2c(cc1F)c(=O)c(S(=O)(=O)c1ccccc1)cn2Cc1ccccc1,inactive: -9.89%
6,COc1ccc(CCNC(=O)NCc2noc3ccc(C)cc23)c(OC)c1,inactive: 3.94%
7,CCOC(=O)c1c(S(=O)(=O)NCC(=O)N2CCN(c3ccccc3OC)CC2)c(C)n(C)c1C,inactive: -2.6%
8,CC(=O)c1cccc(NS(=O)(=O)c2c(C)nc3sc(C)cn3c2=O)c1,inactive: -16.1%
9,CCOC(=O)c1sc2ncn(CC(=O)Nc3ccc(C)cc3C)c(=O)c2c1C,inactive: 1.01%
10,Cc1cc(C)c(/C=C/c2onc(C)c2S(=O)(=O)N2CCC(C(=O)N3CCN(c4ccccc4)CC3)CC2)c(C)c1,inactive: -0.262%
11,COC(=O)c1ccc(Cn2c(SCc3cccc(C)c3)nc3ccncc32)cc1,inactive: -5.9%
12,Cc1ccc(-c2ccc(=O)n(C(C)C(=O)Nc3ccccc3Cl)n2)cc1C (stereo unspecified),inactive: 0.928%
13,COc1cccc(NC(=O)c2cn(C3CCCCC3)c(=O)c3c2c2ccccc2n3C)c1,inactive: -19.3%
14,CCCCNC(=O)C(CC)Sc1nnc(-c2ccc(OC)c(OC)c2)c(-c2ccc(OC)c(OC)c2)n1 (stereo unspecified),inactive: -0.324%
15,COc1ccccc1-c1nn(CCC(=O)Nc2cccc(C(C)=O)c2)c2nc(C)cc(C)c12,inactive: -2.19%
16,COc1ccc(S(=O)(=O)N(CC(=O)N2CCC(C)CC2)c2ccc(C)cc2)cc1,inactive: 4%
17,O=S(=O)(Nc1ccc(-c2ccc(N3CCCC3)nn2)cc1)c1ccc(Br)cc1,inactive: -1.83%
18,COc1ccc(C(=O)NCC(c2cccs2)S(=O)(=O)c2ccc(C)cc2)cc1 (stereo unspecified),inactive: 0.588%
19,CCc1ccccc1Nc1nn2c(=O)c3ccc(C(=O)Nc4cc(C)cc(C)c4)cc3nc2s1,inactive: -9.91%
20,Cc1cc(N2CCC(C)CC2)nc2ccc(NC(=O)CCC(=O)N3CCN(c4cccc(C(F)(F)F)c4)CC3)cc12,inactive: -6.23%
21,COc1cc(Cl)c(C)cc1NC(=O)CN1c2ccccc2S(=O)(=O)c2ccccc21,inactive: -0.321%

row,Compound,"activity change, negative = inhibition"
1,Cc1nn(C)c2c1c(C(F)(F)F)cc(=O)n2CC(=O)NCc1ccccc1Cl,inactive: 0.31%
2,Cc1cc(F)ccc1NC(=O)c1sc2nc(-c3cccs3)ccc2c1N,inactive: -2.22%
3,Cc1ccc(CC(=O)Nc2c(C(=O)N3CCN(c4ccccc4F)CC3)oc3ccccc23)cc1,inactive: 0.896%
4,CCc1cccc(CC)c1NC1=NS(=O)(=O)c2ccccc21,inactive: -0.827%
5,CCOc1ccccc1NC(=O)C(C)Sc1nc2c(c(=O)[nH]1)CCCC2 (stereo unspecified),inactive: 0.531%
6,Cc1ccc(NS(=O)(=O)c2ccc3c(c2)NC(=O)CCS3)c(Br)c1,inactive: -15.3%
7,Cc1ccc(NCc2nnc3n2CCCCC3)cc1Cl,inactive: 0%
8,CCOCCCNC(=O)CCc1nnc2ccc(N3CCN(c4cccc(OC)c4)CC3)nn12,inactive: 0.737%
9,CCOC(=O)c1ccccc1NC(=O)CCc1c(C)nc2ncnn2c1C,inactive: -5.55%
10,COc1ccc(-c2cc(C(=O)Nc3c(C)nn(Cc4ccc(F)cc4)c3C)no2)cc1OC,inactive: 8.3%
11,Cc1ccc2c(=O)cc(C(=O)Nc3nnc(C)s3)oc2c1,inactive: 5.29%
12,CN1C(C(=O)Nc2ccc(F)cc2F)=CC(c2cccs2)=NS1(=O)=O,inactive: 0%
13,CCn1nc(-c2ccccc2)c(-c2ccccc2)c(C(=O)OCCOC)c1=O,inactive: 5.56%
14,Cc1oc(-c2ccccc2)nc1CNC(=O)Nc1ccccc1,inactive: 4.12%
15,CCOC(=O)C1=C(CN2CCC(C(=O)OCC)CC2)NC(=O)NC1c1ccc(Cl)cc1 (stereo unspecified),inactive: 1.09%
16,CCOc1ccc(S(=O)(=O)N2CCN(c3ccccc3)CC2)cc1C(N)=O,inactive: -0.597%
17,Cc1ccc(Nc2c(-c3ccccc3O)nc3ccc(Br)cn23)cc1,inactive: -14.9%
18,CC(C)N(C(=O)Cn1cc(S(=O)(=O)Cc2ccc(C(F)(F)F)cc2)c2ccccc21)C(C)C,inactive: -14.6%
19,Cc1cccc(NC(=O)CSc2nc3c([nH]c4ccccc43)c(=O)n2C)c1,inactive: -0.662%
20,COc1ccc2c(Sc3ccc(Cl)cc3)c(C(=O)NCCCN3CCCCC3)[nH]c2c1,inactive: -0.321%
21,CCOc1ccc(-n2c(=O)c3c(C)c(C(=O)N(C)C)sc3n(CC(=O)Nc3c(C)cc(C)cc3C)c2=O)cc1,inactive: -4.61%

row,Compound,"activity change, negative = inhibition"
1,Cc1ccc(CN(C(=O)COc2ccc(C)c(C)c2)C2CCS(=O)(=O)C2)o1 (stereo unspecified),inactive: 5.52%
2,COc1ccc(S(=O)(=O)Nc2cc(-c3cn4ccccc4n3)ccc2C)cc1,inactive: -12.3%
3,COc1ccc(OCc2nnc(-c3ccccc3)o2)cc1,inactive: 0%
4,Cc1cc2ccccc2n1CCNC(=O)c1cc(C(F)(F)F)cc(C(F)(F)F)c1,inactive: -18%
5,Cn1nnc2c(N3CCN(c4ccccc4)CC3)ncnc21,inactive: 0.358%
6,COCCn1c(SCC(=O)c2ccc(C)cc2C)nc2cc(C(=O)NC3CCCC3)ccc2c1=O,inactive: 2.02%
7,CCOc1ccc(N(CC)S(=O)(=O)N2CCCC(C(=O)Nc3cc(Cl)ccc3C)C2)cc1 (stereo unspecified),inactive: -15.5%
8,CC(C)COc1ccc(C2=NC(c3ccncc3)=Nc3ccc(F)cc3N2)cc1,inactive: -1.52%
9,CC(=O)c1c(C)oc2c(Br)cc(NS(=O)(=O)c3ccc(Br)cc3)cc12,inactive: -17.8%
10,O=C(c1noc2c1CCCCC2)N1CCN(c2cccc(C(F)(F)F)c2)CC1,inactive: -4.33%
11,COc1ccccc1CNc1nc2ccc(Cl)cc2n2cnnc12,inactive: -5.5%
12,CC(C)c1ccc(NC(=O)c2cc(S(=O)(=O)N3CCCCC3)cn2C)cc1,inactive: -2.63%
13,COC(=O)c1cc(NC(=O)c2nn(C)c3c2CSc2ccccc2-3)cc(C(=O)OC)c1,inactive: 0.573%
14,CN1CCN(C(=O)Cn2c(-c3cccs3)cc3cc(Cl)ccc32)CC1,inactive: -1.15%
15,Cc1ccc(Cl)cc1N1CCN(C(=O)C2CCN(S(=O)(=O)c3cccc4nonc34)CC2)CC1,inactive: -28.3%
16,Cc1ccccc1OC(=O)CSc1nnc(-c2ccc3c(c2)OCO3)o1,inactive: 1.28%
17,CCN(CC)CCNC(=O)c1ccc(CSc2nc3ccncc3n2Cc2cccc(F)c2)cc1,inactive: 4.64%
18,CC(C)(C)c1ccc(C(=O)N2CCC(c3nc(-c4ccc(S(=O)(=O)N5CCCC5)cc4)no3)CC2)cc1,inactive: 5.52%
19,CCOc1ccc(-c2cc3c(=O)n(Cc4nc(-c5ccc(OC(C)C)cc5)oc4C)ccn3n2)cc1Cl,inactive: 11.8%
